Results published in publication PMC12136788.
This is one part of the list.

B1: 38495777_38518809_496_CDS_ENSG00000114739_ENST00000352511|human|control|control (ssRNA)
RNA: GGGAGUUCUACAGUCCGACGAUCCUCCCGUGUCUCAGCCUCCCCACGCCCAGAGCCGGCGCACAGCGAUCCCCAGAGGAGGGCGAGGGCCACCCAGGGCGCCGUCAUGUUCCGCGGCGCCGCCCCGCGCACACCCGGAGCCCGCAACAGAGGAUUGAGCAUCA
B2: chr2:150438701:150438702:-_ENSG00000168288_ENST00000303319|hu_mus|FALSE|FALSE (ssRNA)
RNA: GGGAGUUCUACAGUCCGACGAUCAUCAGAACCUGAAGAUCCUGCAGUUGAAAAGGCUCUUGGAUUGAUGACUCUUUUCACUAAAGAACAAAAUCCUGGGAGAUAGGAAACCAGUCUGGCUCUGUUACAGAGCACAUGGGCCAUCAACAGAGGAUUGAGCAUCA
B3: chr19:34954956:34954957:+_ENSG00000126261_ENST00000246548|hu_hu|FALSE|FALSE (ssRNA)
RNA: GGGAGUUCUACAGUCCGACGAUCGAUCAAUAAAGUAUAGUCCUGGAGGAAGUCAUCUGCUUGAAGCCGGCUGCCAUUUCUAAUUCCAAAUUCUGACAACUUCUUGUGAUUAUUAGCUUCCGUCUCUCCCUCUUCGGAAGAUAUCAACAGAGGAUUGAGCAUCA
B4: chr1:46159212:46159213:+_ENSG00000159596_ENST00000372025|hu_mus|hu_hu_hu_mus_True|38_98 (ssRNA)
RNA: GGGAGUUCUACAGUCCGACGAUCUCUGAUCCCUCCCAAGAAAGAUAGGAAACCGGCUCCAUAAGCCAUCUGAGUGAAAGCUAGGACGGGGAUAUAAGUUUUUGUCAUUACCAUGAGAAGUGGGGGAGCAGUAAAGGGGAUUAACAACAGAGGAUUGAGCAUCA
B5: chr7:54825262:54825263:-_ENSG00000132432_ENST00000352861|hu_hu|hu_hu_hu_mus_False|38_38 (ssRNA)
RNA: GGGAGUUCUACAGUCCGACGAUCCUGCCGGCUGGGCUCCACAAACUGCAUUACCUGAUCCAUGUUUGUUGGAUGGCGGAUUGAGAGCGUAGAGACAACGUAGCACUGAGAGAACCGAGCCCAACGGAACCGGAAGCUGGCAACCAACAGAGGAUUGAGCAUCA
B6: chr2:48026839:48026840:+_ENSG00000116062_ENST00000540021|hu_hu|hu_hu_hu_mus_False|68_88 (ssRNA)
RNA: GGGAGUUCUACAGUCCGACGAUCAUAGUGAGCCACUAGCGUCCUAAAUCUCGAACAGUGGCGGUCAUCUGAAAACUGGCCGAUGAAAAACUUGCCCAGUGAAGUGUCCACAAAGCAAACACCAUACACACGAGUGUGACCAGACAACAGAGGAUUGAGCAUCA
B7: chr17:17163782:17163783:-_ENSG00000141030_ENST00000268717|hu_hu|FALSE|FALSE (ssRNA)
RNA: GGGAGUUCUACAGUCCGACGAUCGAGUUCUGAGGGGUUGUUGGUUGAAUACACUUGUGCUAACUCGUGGUAUGCAUUGCUAAGAGGCUUAAUGAAUCUACCCACAAUUUGAGAUGUAUAUUUUGGUAGCUGUUGUACUUUGCCCAACAGAGGAUUGAGCAUCA
B8: chr1:174983830:174983831:-_ENSG00000120333_ENST00000367677|hu_hu|motif|central (ssRNA)
RNA: GGGAGUUCUACAGUCCGACGAUCUUCUGGAGCUCAUUUACCAUGUCGCUCGCUGGAUCCCAGAAAGUUGCCCAUGGUCAGCGGAGUGACGGAAGACUAUACGACUAAGCCUCCAGCGCCGCUUCACACCACGCGGACGGGACGCAACAGAGGAUUGAGCAUCA
B9: chr11:86991360:86991361:+_ENSMUSG00000018548_ENSMUST00000041282|mus_mus|motif|central (ssRNA)
RNA: GGGAGUUCUACAGUCCGACGAUCUUCUCGAAUGAUAUUUUUUGUAGGAUCAUUGCACGACUGGUGAACCAUUUCGGCACGAUAUUCAUACUUGGAAGUUUCAGGCAAGCCAGCCGAUAGUUCCAAAAAUACAGAUAAAUAAUACAACAGAGGAUUGAGCAUCA
B10: chrX:140365796:140365797:-_ENSMUSG00000031285_ENSMUST00000033642|mus_mus|mus_mus_mus_hu_False|78_98 (ssRNA)
RNA: GGGAGUUCUACAGUCCGACGAUCCUUCUCAUUACUCAAUGCCUGCAAGGUUCUGGUUCUGUAGAAGCUACAGUGGGCGCUGUGAGUGGGGCUAGGCAACCCAUUCAUCCGGGAGCCUCGCAUGUUCCUGGAUGUCUUAUCUCUCAACAGAGGAUUGAGCAUCA
B11: chr13:28239862:28239863:+_ENSG00000186184_ENST00000399697|hu_hu|FALSE|FALSE (ssRNA)
RNA: GGGAGUUCUACAGUCCGACGAUCCUCUUUAUGAGAGGGCAAUGUGUUUUUAAUUGUGUUAAUUAGAAAUCUUUUAUUGGUGCUAGCAAGAGGACACUUCAUCCAACCCAUGGGUCCCAUUGUUUCAGCUCUAGUUUUCCCACGCAACAGAGGAUUGAGCAUCA
B12: chr4:138441076:138441077:-_ENSG00000189184_ENST00000507846|hu_hu|FALSE|FALSE (ssRNA)
RNA: GGGAGUUCUACAGUCCGACGAUCACACAACAAAUAAAACAAUUGCAGUAACAAAAAUAUGAUUUUAUAAAUGUUCUUAUACUAAAAAUAAAAGCAAAAAUAUGAGAUCAUGCACUGGAGACAAAAGCUAAAAAUGAAUAGUUACAACAGAGGAUUGAGCAUCA
B13: 30439987_30442568_417_CDS_ENSG00000156261_ENST00000286788|human|control|control (ssRNA)
RNA: GGGAGUUCUACAGUCCGACGAUCAGAAGCCAUUACAAUCAUUUUUGCAGCAGGAUGCUGUACUUCUAGUUCUCUUAAAAUAGUUGCUGCAUCGUUUGUCACAAACAACUUCUCCAAGUGGUUGAUAACCAUUUUGUUCAUUCCCAACAGAGGAUUGAGCAUCA
B14: 39878683_39881377_2562_3pUTR_ENSG00000121892_ENST00000303538|human|control|control (ssRNA)
RNA: GGGAGUUCUACAGUCCGACGAUCUACCUUGUCAUCCUCCAUUCUUAGGCACUGUAACAAGGACUCAUAUGUCUCUGCAGAGUGGAACGAGGUAGGAUGUGUAAAAGACAGAACCUUAAGAAGUUCAAGUCCUGAACGGAUAGCCAACAGAGGAUUGAGCAUCA

Target: T1, UNK ZnF1-3 (human, UniProt Q9C0B0 31-174)
T1 sequence: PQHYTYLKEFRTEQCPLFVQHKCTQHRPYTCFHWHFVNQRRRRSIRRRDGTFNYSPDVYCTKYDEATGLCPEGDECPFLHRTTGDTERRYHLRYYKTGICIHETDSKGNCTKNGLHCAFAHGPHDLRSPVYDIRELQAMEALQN
Experiment: nsRBNS (natural sequence RNA bind-n-seq); RBNS binding buffer (assumed for nsRBNS): 25 mM Tris pH 7.5, 150 mM KCl, 3 mM MgCl2, 0.01% Triton X-100, 500 ug/ml BSA, 20 U/ml SUPERase-In, 4 C; UNK is unkempt and MSI1 is Musashi-1; names of the RNAs are library labels; protein concentration not given here; high values mean tight binding

| Binder | binding signal |
| --- | --- |
| B1 | 1.28 enrichment R |
| B2 | 1.07 enrichment R |
| B3 | 1.01 enrichment R |
| B4 | 1.52 enrichment R |
| B5 | 1.44 enrichment R |
| B6 | 1.31 enrichment R |
| B7 | 0.745 enrichment R |
| B8 | 0.548 enrichment R |
| B9 | 1.03 enrichment R |
| B10 | 0.584 enrichment R |
| B11 | 0.918 enrichment R |
| B12 | 2.65 enrichment R |
| B13 | 0.579 enrichment R |
| B14 | 0.55 enrichment R |
